Hit rate of the full screen: of about 310,000 compounds, about 2,200 (0.71%) showed an effect of 50% or more. The effect is printed as a negative number. Some of the results follow.
molecular target: human ether-à-go-go-related gene (hERG) potassium channel (human, UniProt Q12809); assay: primary screen, population patch clamp on CHO cells stably expressing hERG
Sequence (Q12809 whole entry, looked up): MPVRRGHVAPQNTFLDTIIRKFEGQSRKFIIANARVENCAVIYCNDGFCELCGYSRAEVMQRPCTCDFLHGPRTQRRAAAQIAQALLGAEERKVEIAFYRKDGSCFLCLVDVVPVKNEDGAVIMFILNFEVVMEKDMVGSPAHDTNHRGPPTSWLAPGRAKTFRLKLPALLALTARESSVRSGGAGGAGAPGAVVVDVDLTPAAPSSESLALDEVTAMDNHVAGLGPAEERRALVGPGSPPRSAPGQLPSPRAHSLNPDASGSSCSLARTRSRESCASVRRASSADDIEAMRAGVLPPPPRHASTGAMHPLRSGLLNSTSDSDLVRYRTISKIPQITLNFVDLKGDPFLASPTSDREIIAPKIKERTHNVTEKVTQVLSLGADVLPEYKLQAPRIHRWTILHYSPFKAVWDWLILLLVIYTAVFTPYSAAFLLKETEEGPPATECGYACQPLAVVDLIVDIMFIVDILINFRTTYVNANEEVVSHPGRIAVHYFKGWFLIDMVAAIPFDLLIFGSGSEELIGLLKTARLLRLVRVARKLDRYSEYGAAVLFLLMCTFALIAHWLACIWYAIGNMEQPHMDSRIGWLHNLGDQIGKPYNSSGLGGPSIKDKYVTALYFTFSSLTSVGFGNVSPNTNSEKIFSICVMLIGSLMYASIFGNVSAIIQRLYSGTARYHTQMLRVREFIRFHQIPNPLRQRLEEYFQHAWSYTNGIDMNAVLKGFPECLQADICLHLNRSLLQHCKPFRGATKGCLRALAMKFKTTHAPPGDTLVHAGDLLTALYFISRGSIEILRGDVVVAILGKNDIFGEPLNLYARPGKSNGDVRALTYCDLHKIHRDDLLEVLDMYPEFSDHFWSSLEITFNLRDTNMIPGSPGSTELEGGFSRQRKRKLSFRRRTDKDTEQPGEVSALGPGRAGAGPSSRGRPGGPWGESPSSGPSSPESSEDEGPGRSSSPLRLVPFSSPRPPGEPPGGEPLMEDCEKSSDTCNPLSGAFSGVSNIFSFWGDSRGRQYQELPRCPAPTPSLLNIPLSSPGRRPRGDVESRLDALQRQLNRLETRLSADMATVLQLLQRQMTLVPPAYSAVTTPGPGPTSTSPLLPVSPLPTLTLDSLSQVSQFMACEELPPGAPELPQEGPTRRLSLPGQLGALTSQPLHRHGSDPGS

Row | Structure (SMILES) | hERG current change (%, negative = inhibition) at 1uM
1 | CCn1cc(C(=O)NCC(OC)OC)c(=O)c2cc(S(=O)(=O)N3CCCC3)ccc21 | 13.6%
2 | CCOC(=O)C1CCN(C(=O)c2ccccc2CCc2ccccc2)CC1 | 7.02%
3 | CC(CNC(=O)CCc1nnc(CCC2CCCCC2)o1)c1ccccc1 (stereo not drawn) | 5.97%
4 | C#CCNC(=O)C1=C[C@H](c2coc3ccccc3c2=O)C[C@H](OCCCCO)O1 | -13.1%
5 | COc1cc(/C=C2\C(=O)ON=C2c2ccccc2)cc(Br)c1O | 14%
6 | CNC(=S)NNC(=O)c1cccn(Cc2ccccc2)c1=O | 10%
7 | O=C(CNC(=O)C(c1ccccc1)c1ccccc1)OCc1ccccc1 | 1.37%
8 | Cn1c(-c2ccccc2)cnc1SCC(=O)NCc1ccco1 | 8.86%
9 | CC(C)C(=O)Nc1ccc(NC(=O)c2ccccn2)cn1 | 12.6%
10 | O=c1c2ccccc2cnn1Cc1cccc(Br)c1 | 12.2%
11 | CC(O)Cc1cn([C@@H](CCCCNC(=O)OC(C)(C)C)C(=O)N2CCN(C(=O)OC(C)(C)C)CC2)nn1 (stereo partly drawn) | 12.1%
12 | Cc1ccc(C)n1-c1cc(S(=O)(=O)N2CCOCC2)ccc1N1CCCC1 | 15.7%
13 | O=S(=O)(c1cccc(S(=O)(=O)N2CCOCC2)c1)N1CCCCCC1 | 15.8%
14 | CC1CCC(NC(=O)C2CCN(C(=O)Nc3ccccc3)CC2)CC1 (stereo not drawn) | 13.4%
15 | COc1ccc2c(c1OC)C(=O)OC2c1c(O)nc(SC)n(-c2ccccc2)c1=O (stereo not drawn) | 0.157%
16 | CCOC(=O)C1CCN(/C=C2/C(=O)NC(=S)N(c3cccc(OC)c3)C2=O)CC1 | 9.9%
17 | O=C(O)CC1c2ccccc2CCN1S(=O)(=O)c1cccs1 (stereo not drawn) | 10.7%
18 | Nc1[nH]c(N=NC(=O)c2ccc(F)cc2)c2ccccc12 | 7.15%
19 | Nc1c(C(=O)N/N=C/c2ccc(Cl)cc2)cnn1-c1ccccc1 | 12%
20 | COCC(C)NS(=O)(=O)c1ccc(C(=O)NC(Cc2ccccc2)c2ccccc2)cc1 (stereo not drawn) | 6.26%
21 | O=C(CSc1nnc(NC2CCCCC2)s1)NN1C(=O)NC2(CCCCC2)C1=O | 8.05%
22 | CC1Cc2cc(S(=O)(=O)N3CCN(c4ccccc4F)CC3)ccc2N1C(=O)C1CC1 (stereo not drawn) | 21.8%
23 | COc1ccc(N(CC(=O)NCCSCc2ccco2)S(=O)(=O)c2ccccc2)cc1OC | 6.77%
24 | CC(C)Oc1ccc(S(=O)(=O)N2CCOCC2)cc1NC(=O)C1CCCC1 | 1.02%
25 | CC(C)=CCSc1nnc([C@@H](NC(=O)OC(C)(C)C)C(C)C)o1 | 6.21%
26 | CC1CCCC(NC(=O)COC(=O)c2cc(S(=O)(=O)N3CCOCC3)ccc2F)C1C (stereo not drawn) | 9.78%
27 | CC(=O)C(=Cc1cc(C)n(-c2ccccc2)c1C)C(C)=O | 12.6%

Row | Structure (SMILES) | hERG current change (%, negative = inhibition) at 1uM
28 | CC(C)(O)CC[C@@H](O)[C@](C)(O)[C@H]1CC[C@@]2(O)C3=CC(=O)[C@@H]4C[C@@H](O)[C@@H](O)C[C@]4(C)[C@H]3CC[C@]12C | 23.3%
29 | COc1ccc(S(=O)(=O)N2CCC(C(=O)N[C@H](C(=O)NCc3ccncc3)C(C)C)CC2)cc1 | 16.9%
30 | O=C(CN1CCOCC1)Nc1ccc2c(c1)OC(F)(F)O2 | 8.33%
31 | CCCCn1c(N)c(N(CC)C(=O)CCNC(=O)NC23CC4CC(CC(C4)C2)C3)c(=O)[nH]c1=O | 8.66%
32 | O=C(Nc1cc2c3c(c1)CC(=O)N3CCC2)c1ccc(Cl)cc1 | -5.37%
33 | Cc1c(C(=O)O)sc(S(=O)(=O)N2CCN(C(=O)Cc3ccc(F)cc3)CC2)c1C(=O)O | 6.53%
34 | COc1ccc(N2CC(NS(=O)(=O)c3cccnc3)CC2=O)cc1 (stereo not drawn) | 19.9%
35 | O=S1(=O)C=C(SCCN2CCCC2)c2ccccc21 | 4.33%
36 | O=C(c1ccc(F)cc1)c1cnc(Nc2ccccc2)s1 | 18.2%
37 | O=c1cc(N2CCCCC2)c(-c2ccccc2)nn1Cc1cccc(F)c1 | -9.67%
38 | CCc1ccccc1NC(=O)NCc1ccc2c(c1)OCO2 | 10.6%
39 | CCOC(=O)C(=CNc1ccc(C(O)(C(=O)OCC)C(F)(F)F)cc1C)C(=O)OCC (stereo not drawn) | -2.89%
40 | CC(C)(C)C(=O)Nc1ccc(N2CCN(S(C)(=O)=O)CC2)cc1 | 10.6%
41 | Cc1ccc(NC(=O)[C@@H](C)NC(=O)[C@@H]2Cc3ccccc3CN2)cc1 | -2.72%
42 | Cc1ccc(N=C2NC(=O)C(CO)(CO)S2)cc1 | 8.61%
43 | O=C(/C=C/c1ccc([N+](=O)[O-])s1)N1CCN(c2ccccc2)CC1 | -6.06%
44 | CC(=O)NS(=O)(=O)c1ccc(NC(=O)c2ccc(NC(=O)c3cccs3)cc2)cc1 | 7.23%
45 | CCCC(=O)NC(Oc1ccccc1Cl)C(Cl)(Cl)Cl (stereo not drawn) | 6%
46 | Cc1ccc(NS(=O)(=O)c2ccc(Cl)s2)nc1 | 12.6%
47 | CC(=O)Cc1nsc(NC(=O)c2cccc(F)c2)n1 | 14.2%
48 | O=C(O)CCc1ccc(-c2ccc(Br)cc2)n1Cc1ccco1 | 17.3%
49 | Cc1cc(C)nc(NS(=O)(=O)c2ccc(NC(=O)Nc3ccccc3)cc2)n1 | 14.7%
50 | CS(=O)(=O)Nc1ccc(C(=O)CC(=O)Nc2ccc([N+](=O)[O-])cc2)cc1 | -24.6%
51 | N=C1C(c2nc3ccccc3s2)=C(O)CN1c1ccccc1 | 12.4%
52 | O=C(Nc1ccc(F)cc1F)Nc1ccc(F)cc1F | 6.75%
53 | O=C(NP(=O)(N1CCCC1)N1CCCC1)C1=C(N2CCOCC2)/C(=C/c2cccc([N+](=O)[O-])c2)CC1 | -0.708%
54 | COc1ccc(C(CNC(=O)c2ccc(-c3ccccc3Cl)o2)N2CCOCC2)cc1 (stereo not drawn) | -7.11%
